# Measurements as given in the supplement of paper PMC8728848.
# Some of the results follow.
# B1: CFEM-PPm (Pichia pastoris), F2QPV1 (protein)
# chain: AVATPPACLLACAAEVVKESSDCDALNNIQCICENEGSAIHACLESTCPDGLSSTALQSFEDVCE
# Experiments:
# Test in all cases: glycan array binding signal (z-score within array); higher = stronger binding
# Conditions in all cases: glycan notation: IUPAC condensed, linker removed
# Gal(a1-3)Gal(b1-4)GlcNAc = biological target: Gal(a1-3)Gal(b1-4)GlcNAc
# Summary of the method: (§1)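 Glycan array binding is given as a within-array Z-score, which can be read as non-binding when negative. The arrays, 3228 of them, came from the Consortium for Functional Glycomics database and were retained only where the protein sequence was available. Z-scores were averaged across arrays of the same protein sequence at different concentrations or buffers and across linkers.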
# [1] = biological target: Gal(a1-3)Gal(b1-4)GlcNAc(b1-2)Man
# Summary of the method: as §1
# [2] = biological target: Gal(a1-3)Gal(b1-4)GlcNAc(b1-2)Man(a1-3)[Gal(a1-3)Gal(b1-4)GlcNAc(b1-2)Man(a1-6)]Man(b1-4)GlcNAc(b1-4)GlcNAc
# Summary of the method: as §1
# [3] = biological target: Gal(a1-3)Gal(b1-4)GlcNAc(b1-3)GalNAc
# Summary of the method: as §1
# [4] = biological target: Gal(a1-3)Gal(b1-4)GlcNAc(b1-6)GalNAc
# Summary of the method: as §1
# [5] = biological target: Gal(a1-3)Gal(b1-4)[Fuc(a1-3)]GlcNAc
# Summary of the method: as §1
# [6] = biological target: Gal(a1-3)Gal(b1-4)[Fuc(a1-3)]GlcNAc(b1-2)Man(a1-3)[Gal(a1-3)Gal(b1-4)[Fuc(a1-3)]GlcNAc(b1-2)Man(a1-6)]Man(b1-4)GlcNAc(b1-4)GlcNAc
# Summary of the method: as §1
# Gal(a1-3)GalNAc = biological target: Gal(a1-3)GalNAc
# Summary of the method: as §1
# [7] = biological target: Gal(a1-3)[Gal(a1-4)]Gal(b1-4)GlcNAc
# Summary of the method: as §1
# [8] = biological target: Gal(a1-4)Gal(b1-3)GlcNAc(b1-2)Man(a1-3)[Gal(a1-4)Gal(b1-3)GlcNAc(b1-2)Man(a1-6)]Man(b1-4)GlcNAc(b1-4)GlcNAc
# Summary of the method: as §1
# Gal(a1-4)Gal(b1-4)Glc = biological target: Gal(a1-4)Gal(b1-4)Glc
# Summary of the method: as §1
# Gal(a1-4)Gal(b1-4)GlcNAc = biological target: Gal(a1-4)Gal(b1-4)GlcNAc
# Summary of the method: as §1
# [9] = biological target: Gal(a1-4)Gal(b1-4)GlcNAc(b1-2)Man(a1-3)[Gal(a1-4)Gal(b1-4)GlcNAc(b1-2)Man(a1-6)]Man(b1-4)GlcNAc(b1-4)GlcNAc
# Summary of the method: as §1
# [10] = biological target: Gal(a1-4)Gal(b1-4)GlcNAc(b1-3)Gal(b1-4)Glc
# Summary of the method: as §1
# Gal(a1-4)GlcNAc = biological target: Gal(a1-4)GlcNAc
# Summary of the method: as §1
# Gal(a1-6)Glc = biological target: Gal(a1-6)Glc
# Summary of the method: as §1
# Gal(b1-2)Gal = biological target: Gal(b1-2)Gal
# Summary of the method: as §1
# Gal(b1-3)Gal = biological target: Gal(b1-3)Gal
# Summary of the method: as §1
# Gal(b1-3)Gal(b1-4)GlcNAc = biological target: Gal(b1-3)Gal(b1-4)GlcNAc
# Summary of the method: as §1
# Gal(b1-3)GalNAc = biological target: Gal(b1-3)GalNAc
# Summary of the method: as §1
# [11] = biological target: Gal(b1-3)GalNAc(a1-3)[Fuc(a1-2)]Gal(b1-4)Glc
# Summary of the method: as §1
# [12] = biological target: Gal(b1-3)GalNAc(a1-3)[Fuc(a1-2)]Gal(b1-4)GlcNAc
# Summary of the method: as §1
# Gal(b1-3)GalNAc(b1-3)Gal = biological target: Gal(b1-3)GalNAc(b1-3)Gal
# Summary of the method: as §1
# [13] = biological target: Gal(b1-3)GalNAc(b1-3)Gal(a1-4)Gal(b1-4)Glc
# Summary of the method: as §1
# [14] = biological target: Gal(b1-3)GalNAc(b1-4)Gal(b1-4)Glc
# Summary of the method: as §1
# [15] = biological target: Gal(b1-3)GalNAc(b1-4)[Neu5Ac(a2-3)]Gal(b1-4)Glc
# Summary of the method: as §1
# Gal(b1-3)GlcNAc = biological target: Gal(b1-3)GlcNAc
# Summary of the method: as §1
# [16] = biological target: Gal(b1-3)GlcNAc(a1-3)Gal(b1-4)GlcNAc
# Summary of the method: as §1
# [17] = biological target: Gal(b1-3)GlcNAc(a1-6)Gal(b1-4)GlcNAc
# Summary of the method: as §1
# Gal(b1-3)GlcNAc(b1-2)Man = biological target: Gal(b1-3)GlcNAc(b1-2)Man
# Summary of the method: as §1
# [18] = biological target: Gal(b1-3)GlcNAc(b1-2)Man(a1-3)[Gal(b1-3)GlcNAc(b1-2)Man(a1-6)]Man(b1-4)GlcNAc(b1-4)GlcNAc
# Summary of the method: as §1
# [19] = biological target: Gal(b1-3)GlcNAc(b1-2)Man(a1-3)[Gal(b1-3)GlcNAc(b1-2)Man(a1-6)]Man(b1-4)GlcNAc(b1-4)[Fuc(a1-6)]GlcNAc
# Summary of the method: as §1
# [20] = biological target: Gal(b1-3)GlcNAc(b1-2)Man(a1-3)[GlcNAc(b1-4)][Gal(b1-3)GlcNAc(b1-2)Man(a1-6)]Man(b1-4)GlcNAc(b1-4)GlcNAc
# Summary of the method: as §1
# [21] = biological target: Gal(b1-3)GlcNAc(b1-2)[Gal(b1-3)GlcNAc(b1-6)]Man(a1-6)[Gal(b1-3)GlcNAc(b1-2)Man(a1-3)]Man(b1-4)GlcNAc(b1-4)GlcNAc
# Summary of the method: as §1
# [22] = biological target: Gal(b1-3)GlcNAc(b1-3)Gal(b1-3)GlcNAc
# Summary of the method: as §1
# [23] = biological target: Gal(b1-3)GlcNAc(b1-3)Gal(b1-4)Glc
# Summary of the method: as §1
# [24] = biological target: Gal(b1-3)GlcNAc(b1-3)Gal(b1-4)GlcNAc
# Summary of the method: as §1
# [25] = biological target: Gal(b1-3)GlcNAc(b1-3)Gal(b1-4)GlcNAc(b1-2)Man(a1-3)[Gal(b1-3)GlcNAc(b1-3)Gal(b1-4)GlcNAc(b1-2)Man(a1-6)]Man(b1-4)GlcNAc(b1-4)GlcNAc
# Summary of the method: as §1
# [26] = biological target: Gal(b1-3)GlcNAc(b1-3)Gal(b1-4)GlcNAc(b1-2)[Gal(b1-3)GlcNAc(b1-3)Gal(b1-4)GlcNAc(b1-6)]Man(a1-6)[Gal(b1-3)GlcNAc(b1-3)Gal(b1-4)GlcNAc(b1-2)Man(a1-3)]Man(b1-4)GlcNAc(b1-4)[Fuc(a1-6)]GlcNAc
# Summary of the method: as §1
# [27] = biological target: Gal(b1-3)GlcNAc(b1-3)Gal(b1-4)GlcNAc(b1-3)Gal(b1-4)GlcNAc(b1-2)[Gal(b1-3)GlcNAc(b1-3)Gal(b1-4)GlcNAc(b1-3)Gal(b1-4)GlcNAc(b1-6)]Man(a1-6)[Gal(b1-3)GlcNAc(b1-3)Gal(b1-4)GlcNAc(b1-3)Gal(b1-4)GlcNAc(b1-2)Man(a1-3)]Man(b1-4)GlcNAc(b1-4)[Fuc(a1-6)]GlcNAc
# Summary of the method: as §1
# [28] = biological target: Gal(b1-3)GlcNAc(b1-3)Gal(b1-4)GlcNAc(b1-6)[Gal(b1-3)GlcNAc(b1-3)]Gal(b1-4)Glc
# Summary of the method: as §1
# [29] = biological target: Gal(b1-3)GlcNAc(b1-3)Gal(b1-4)[Fuc(a1-3)]GlcNAc
# Summary of the method: as §1
# [30] = biological target: Gal(b1-3)GlcNAc(b1-3)Gal(b1-4)[Fuc(a1-3)]GlcNAc(b1-6)[Gal(b1-3)GlcNAc(b1-3)]Gal(b1-4)Glc
# Summary of the method: as §1
# [31] = biological target: Gal(b1-3)GlcNAc(b1-3)GalNAc
# Summary of the method: as §1
# [32] = biological target: Gal(b1-3)GlcNAc(b1-6)Gal(b1-4)GlcNAc
# Summary of the method: as §1
binder,measurement,setting,value
B1,glycan array binding signal (z-score),Gal(a1-3)Gal(b1-4)GlcNAc,-0.146
same,glycan array binding signal (z-score),[1],-0.269
same,glycan array binding signal (z-score),[2],-0.204
same,glycan array binding signal (z-score),[3],-0.284
same,glycan array binding signal (z-score),[4],-0.423
same,glycan array binding signal (z-score),[5],-0.203
same,glycan array binding signal (z-score),[6],-0.051
same,glycan array binding signal (z-score),Gal(a1-3)GalNAc,-0.238
same,glycan array binding signal (z-score),[7],-0.042
same,glycan array binding signal (z-score),[8],-0.319
same,glycan array binding signal (z-score),Gal(a1-4)Gal(b1-4)Glc,0.197
same,glycan array binding signal (z-score),Gal(a1-4)Gal(b1-4)GlcNAc,0.007
same,glycan array binding signal (z-score),[9],-0.132
same,glycan array binding signal (z-score),[10],-0.44
same,glycan array binding signal (z-score),Gal(a1-4)GlcNAc,0.31
same,glycan array binding signal (z-score),Gal(a1-6)Glc,-0.096
same,glycan array binding signal (z-score),Gal(b1-2)Gal,-0.182
same,glycan array binding signal (z-score),Gal(b1-3)Gal,5.41
same,glycan array binding signal (z-score),Gal(b1-3)Gal(b1-4)GlcNAc,6.22
same,glycan array binding signal (z-score),Gal(b1-3)GalNAc,3.57
same,glycan array binding signal (z-score),[11],0.271
same,glycan array binding signal (z-score),[12],0.224
same,glycan array binding signal (z-score),Gal(b1-3)GalNAc(b1-3)Gal,5.7
same,glycan array binding signal (z-score),[13],0.31
same,glycan array binding signal (z-score),[14],14.7
same,glycan array binding signal (z-score),[15],1.41
same,glycan array binding signal (z-score),Gal(b1-3)GlcNAc,-0.226
same,glycan array binding signal (z-score),[16],1.35
same,glycan array binding signal (z-score),[17],0.053
same,glycan array binding signal (z-score),Gal(b1-3)GlcNAc(b1-2)Man,0.152
same,glycan array binding signal (z-score),[18],0.199
same,glycan array binding signal (z-score),[19],-0.248
same,glycan array binding signal (z-score),[20],-0.033
same,glycan array binding signal (z-score),[21],-0.203
same,glycan array binding signal (z-score),[22],-0.096
same,glycan array binding signal (z-score),[23],-0.32
same,glycan array binding signal (z-score),[24],-0.447
same,glycan array binding signal (z-score),[25],-0.305
same,glycan array binding signal (z-score),[26],0.082
same,glycan array binding signal (z-score),[27],0.301
same,glycan array binding signal (z-score),[28],-0.017
same,glycan array binding signal (z-score),[29],-0.126
same,glycan array binding signal (z-score),[30],0.036
same,glycan array binding signal (z-score),[31],-0.286
same,glycan array binding signal (z-score),[32],-0.102
